The values below come from the supplement of paper PMC10600219.

The structures appear in SMILES notation. Structures can show the parent of a compound that is named as a salt. In all, about 2,800 compounds were measured (“cell viability relative to vehicle”: median about 0.98, lowest 2% from about 0.45 on). This is one part of the list.

The subject of this assay is NCI-H2228 alectinib-DTP. The assay can be described thus: cell viability relative to vehicle (fraction of vehicle); NCI-H2228 is an ALK-positive lung cancer line and DTP means drug-tolerant persister; higher = less growth inhibition. As to conditions: 100 nM; treatment time 6 days. The essentials: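 Each value is viability relative to vehicle-treated cells, measured as ATP with the CellTiter-Glo 3D Cell Viability Assay. Parental NCI-H2228 cells and drug-tolerant persisters (1000 nM targeted drug, 13 days) in 384-well plates received the 3114-agent TargetMol anti-cancer compound library at 100 nM, or DMSO, and were read 6 days later.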
For the compound `Cc1ccc(NC(=O)Nc2cc(C(F)(F)F)ccc2F)cc1Nc1ccc2c(c1)NC(=O)/C2=C\c1ccc[nH]1`, the cell viability was 0.945.

Compound `C[C@H]1CNC(=O)c2cnn3ccc(nc23)N[C@H](C)c2cc(F)ccc2O1` returned a cell viability of 0.904.

On to `CC(CN1c2ccccc2Sc2ccccc21)N(C)C` (stereo unspecified) [Promethazine hydrochloride], for which the cell viability is 0.988.

`CC(CN1c2ccccc2Sc2ccccc21)N(C)C` (stereo unspecified) [Promethazine]: the cell viability turned out to be 1.18.

`FC(F)(F)c1ccccc1-c1nc(NCc2cccs2)c2ccccc2n1` registered a cell viability of 0.951.

For the compound `COC1(c2sc3c(N4CCOCC4)nc(-c4cnc(N)nc4)nc3c2C)COC1`, the cell viability is 0.496.

Take `CCn1cc(C(=O)O)c(=O)c2cc(F)c(N3CCNCC3)cc21` [Norfloxacin]: the cell viability turned out to be 0.991.

Turning to `COc1cccc(OCCCN)c1-c1cc(Nc2cnc(C#N)cn2)n[nH]1` [Prexasertib dihydrochloride], the cell viability was 0.602.

As to `Fc1ccc(-n2cc(CCCCN3CCC4(CC3)OCc3ccccc34)c3ccccc32)cc1` [Siramesine hydrochloride], the cell viability was 1.05.

`COc1cc(N)c(Cl)cc1C(=O)NC1CCN(CCCOc2ccc(F)cc2)CC1OC` (stereo unspecified) [Cisapride] yielded a cell viability of 1.03.

`CN(C)CCC(c1ccc(Cl)cc1)c1ccccn1` (stereo unspecified) [Chlorpheniramine maleate] yielded a cell viability of 0.927.

Take `CC(C)=CC[C@@H](OC(=O)C=C(C)C)C1=CC(=O)c2c(O)ccc(O)c2C1=O` [Dimethylacrylshikonin]: the cell viability was 1.02.

Regarding `N=C1S/C(=C\c2ccc(-c3ccc4c(c3)C(=O)NC4=O)o2)C(=O)N1c1ccc(Br)cc1` [Bioymifi], the cell viability is 1.05.

Compound `COc1ccc(-c2coc3cc(O)cc(O)c3c2=O)cc1` [Biochanin A] had a cell viability of 1.15.

As to `O=S(=O)(NCCNC/C=C/c1ccc(Br)cc1)c1cccc2cnccc12`, the cell viability came out at 0.981.

Take `NS(=O)(=O)NCCNc1nonc1/C(=N/O)Nc1ccc(F)c(Br)c1` [Epacadostat]: the cell viability was 1.06.

In the case of `Oc1cccc(O)c1O` [Pyrogallol], the cell viability turned out to be 1.13.

Compound `COC1=CC(=O)C[C@@H](C)[C@]12Oc1c(Cl)c(OC)cc(OC)c1C2=O` [Griseofulvin] registered a cell viability of 0.912.

For the compound `CCC(=O)NCC[C@@H]1CCc2ccc3c(c21)CCO3` [Ramelteon], the cell viability stood at 0.857.

Regarding `CC(C)=CCC[C@](C)(O[C@@H]1O[C@H](CO[C@@H]2O[C@H](CO)[C@@H](O)[C@H](O)[C@H]2O)[C@@H](O)[C@H](O)[C@H]1O)[C@H]1CC[C@]2(C)[C@@H]1[C@H](O)C[C@@H]1[C@@]3(C)CC[C@H](O[C@@H]4O[C@H](CO)[C@@H](O)[C@H](O)[C@H]4O)C(C)(C)[C@@H]3CC[C@]12C` [Gypenoside XVII], the cell viability was determined as 0.992.

As for `CC(C)(C)c1cc(/C=C(\C#N)C(N)=S)cc(C(C)(C)C)c1O` [Tyrphostin AG 879], the cell viability was found to be 1.09.
